Experiment [1] deals with INTS4/9/11 heterotrimer (Integrator Cleavage Module), co-expressed in yeast (human) (UniProt Q96HW7+Q9NV88+Q5TA45). Briefly: two-hybrid; modified: INTS13 (wild type, fragments or patient mutants) fused to the Gal4 activation domain against co-expressed INTS4/9/11 (wild type or point mutants); medium lacking histidine with 3AT (Fig. 3b, 3d; Supplementary Fig. 2c).
The target in experiment [2] is Integrator subunit 14 (INTS14), Gal4 fusion (human) (UniProt Q96SY0). Briefly: two-hybrid; pairwise: INTS14 fused to the Gal4 DNA-binding domain against each of the other Integrator subunits fused to the activation domain (Supplementary Fig. 3b, left).
Experiment [3] deals with Integrator subunit 13 (INTS13), full length, Gal4 fusion (human) (UniProt Q9NVM9). Briefly: two-hybrid; pairwise: INTS13 fused to the Gal4 DNA-binding domain mated with strains expressing each individual Integrator subunit fused to the Gal4 activation domain; medium lacking histidine with 1 mM 3AT (Fig. 3a, left).
The target in experiment [4] is His-tagged full-length human INTS4 (insect cells) (human) (UniProt Q96HW7). Briefly: pull-down + SEC; four proteins co-expressed in High Five cells; nickel affinity by His-INTS4, then Superdex 200 gel filtration in 20 mM Tris pH 8.0, 250 mM NaCl, 5 mM DTT; fractions on SDS-PAGE; both purified.

Chains of the proteins cited; added tags and fusions are not shown. Lines headed by an entry give the natural chain unless they say otherwise; changes in a name come on top. Residues count along the entry.
UniProt Q96HW7: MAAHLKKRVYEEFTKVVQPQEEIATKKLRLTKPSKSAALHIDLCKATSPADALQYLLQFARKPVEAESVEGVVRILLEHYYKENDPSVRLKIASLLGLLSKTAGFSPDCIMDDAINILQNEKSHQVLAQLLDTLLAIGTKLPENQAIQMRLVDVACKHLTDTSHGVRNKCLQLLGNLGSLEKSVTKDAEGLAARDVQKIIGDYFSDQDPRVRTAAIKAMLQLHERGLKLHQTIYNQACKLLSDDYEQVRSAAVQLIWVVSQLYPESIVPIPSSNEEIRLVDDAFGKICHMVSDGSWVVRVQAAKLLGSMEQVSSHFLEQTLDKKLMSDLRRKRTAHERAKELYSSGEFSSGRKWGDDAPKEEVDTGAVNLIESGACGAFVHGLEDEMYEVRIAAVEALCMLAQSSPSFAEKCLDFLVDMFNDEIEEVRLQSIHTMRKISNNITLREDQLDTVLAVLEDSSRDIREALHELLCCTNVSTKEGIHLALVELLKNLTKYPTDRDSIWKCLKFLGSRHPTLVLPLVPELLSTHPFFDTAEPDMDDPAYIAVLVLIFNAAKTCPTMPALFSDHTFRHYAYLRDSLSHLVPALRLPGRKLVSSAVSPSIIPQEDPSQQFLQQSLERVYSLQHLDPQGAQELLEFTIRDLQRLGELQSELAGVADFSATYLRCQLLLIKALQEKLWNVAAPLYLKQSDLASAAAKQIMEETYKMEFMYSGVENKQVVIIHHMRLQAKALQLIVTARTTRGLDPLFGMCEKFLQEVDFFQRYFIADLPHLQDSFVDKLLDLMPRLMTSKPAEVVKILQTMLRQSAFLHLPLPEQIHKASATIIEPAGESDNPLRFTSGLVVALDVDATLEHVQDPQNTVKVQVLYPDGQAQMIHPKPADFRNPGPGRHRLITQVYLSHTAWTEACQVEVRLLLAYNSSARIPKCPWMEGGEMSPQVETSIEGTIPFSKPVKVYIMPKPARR
UniProt Q9NV88: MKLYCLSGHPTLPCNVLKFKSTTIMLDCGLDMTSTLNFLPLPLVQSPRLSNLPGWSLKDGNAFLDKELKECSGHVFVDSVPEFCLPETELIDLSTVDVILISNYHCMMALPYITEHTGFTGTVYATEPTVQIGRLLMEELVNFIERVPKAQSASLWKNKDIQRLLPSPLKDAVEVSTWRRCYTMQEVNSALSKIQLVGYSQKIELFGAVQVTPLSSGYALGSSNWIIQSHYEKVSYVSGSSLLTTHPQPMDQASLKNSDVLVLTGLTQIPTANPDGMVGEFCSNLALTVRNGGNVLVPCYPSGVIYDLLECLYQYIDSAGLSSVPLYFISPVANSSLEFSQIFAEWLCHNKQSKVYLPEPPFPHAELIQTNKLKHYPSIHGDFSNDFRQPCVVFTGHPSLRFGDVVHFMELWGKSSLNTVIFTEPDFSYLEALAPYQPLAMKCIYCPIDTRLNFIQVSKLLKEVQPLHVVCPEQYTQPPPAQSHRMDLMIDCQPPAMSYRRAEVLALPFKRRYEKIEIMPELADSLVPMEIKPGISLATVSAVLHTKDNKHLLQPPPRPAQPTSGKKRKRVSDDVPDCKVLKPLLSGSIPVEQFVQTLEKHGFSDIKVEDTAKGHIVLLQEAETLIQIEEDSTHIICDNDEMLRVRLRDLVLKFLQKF
UniProt Q5TA45: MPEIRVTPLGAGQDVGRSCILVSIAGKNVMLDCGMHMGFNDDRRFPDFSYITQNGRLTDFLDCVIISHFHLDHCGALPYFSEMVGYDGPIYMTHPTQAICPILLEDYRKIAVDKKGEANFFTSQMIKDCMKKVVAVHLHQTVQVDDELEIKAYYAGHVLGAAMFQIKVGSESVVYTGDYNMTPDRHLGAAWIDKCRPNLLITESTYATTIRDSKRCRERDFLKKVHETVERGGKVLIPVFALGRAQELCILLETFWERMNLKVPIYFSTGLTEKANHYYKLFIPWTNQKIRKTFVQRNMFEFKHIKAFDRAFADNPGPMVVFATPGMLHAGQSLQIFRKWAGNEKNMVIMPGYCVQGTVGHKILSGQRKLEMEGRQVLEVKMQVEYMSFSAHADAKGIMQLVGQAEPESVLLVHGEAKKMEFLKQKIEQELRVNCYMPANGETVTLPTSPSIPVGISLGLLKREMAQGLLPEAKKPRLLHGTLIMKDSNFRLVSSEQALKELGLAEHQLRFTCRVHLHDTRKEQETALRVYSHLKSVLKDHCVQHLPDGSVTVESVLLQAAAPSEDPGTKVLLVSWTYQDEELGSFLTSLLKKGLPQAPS
UniProt Q96SY0: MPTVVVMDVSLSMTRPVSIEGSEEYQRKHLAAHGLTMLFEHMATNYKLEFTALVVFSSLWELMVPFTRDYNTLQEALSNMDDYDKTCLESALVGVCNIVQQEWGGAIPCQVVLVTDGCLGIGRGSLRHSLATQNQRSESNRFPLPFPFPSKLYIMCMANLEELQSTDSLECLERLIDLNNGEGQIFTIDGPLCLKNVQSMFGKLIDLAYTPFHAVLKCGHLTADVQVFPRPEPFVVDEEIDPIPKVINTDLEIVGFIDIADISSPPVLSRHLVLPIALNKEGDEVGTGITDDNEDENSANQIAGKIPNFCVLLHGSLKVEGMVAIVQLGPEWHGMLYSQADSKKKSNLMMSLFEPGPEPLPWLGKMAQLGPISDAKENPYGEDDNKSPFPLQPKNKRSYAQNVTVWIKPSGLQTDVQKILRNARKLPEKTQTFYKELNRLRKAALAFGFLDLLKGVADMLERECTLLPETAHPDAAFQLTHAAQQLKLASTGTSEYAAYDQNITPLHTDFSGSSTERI
UniProt Q9NVM9: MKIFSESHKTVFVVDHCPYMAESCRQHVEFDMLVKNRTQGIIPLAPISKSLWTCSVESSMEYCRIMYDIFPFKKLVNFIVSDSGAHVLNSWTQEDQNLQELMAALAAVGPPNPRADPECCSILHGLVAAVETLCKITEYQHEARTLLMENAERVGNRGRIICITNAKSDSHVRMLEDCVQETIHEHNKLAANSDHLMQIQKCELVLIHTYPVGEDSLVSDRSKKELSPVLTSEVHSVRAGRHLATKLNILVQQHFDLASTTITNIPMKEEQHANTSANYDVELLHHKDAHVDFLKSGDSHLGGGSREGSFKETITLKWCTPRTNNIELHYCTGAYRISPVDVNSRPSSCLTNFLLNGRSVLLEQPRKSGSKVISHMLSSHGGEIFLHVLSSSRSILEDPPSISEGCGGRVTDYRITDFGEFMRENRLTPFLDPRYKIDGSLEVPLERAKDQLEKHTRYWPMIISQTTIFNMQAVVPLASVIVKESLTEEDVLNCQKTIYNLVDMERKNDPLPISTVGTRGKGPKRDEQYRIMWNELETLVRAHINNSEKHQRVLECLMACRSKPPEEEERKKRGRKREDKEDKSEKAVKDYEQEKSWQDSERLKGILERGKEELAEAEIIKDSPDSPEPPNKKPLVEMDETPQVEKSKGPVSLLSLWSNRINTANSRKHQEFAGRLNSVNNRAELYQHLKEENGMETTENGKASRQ
INTS13 C-terminal region, amino acids 501-706, Gal4 activation domain fusion: residues 501-706 of Q9NVM9
INTS13 amino acids 577-706, Gal4 activation domain fusion: residues 577-706 of Q9NVM9
UniProt Q68E01: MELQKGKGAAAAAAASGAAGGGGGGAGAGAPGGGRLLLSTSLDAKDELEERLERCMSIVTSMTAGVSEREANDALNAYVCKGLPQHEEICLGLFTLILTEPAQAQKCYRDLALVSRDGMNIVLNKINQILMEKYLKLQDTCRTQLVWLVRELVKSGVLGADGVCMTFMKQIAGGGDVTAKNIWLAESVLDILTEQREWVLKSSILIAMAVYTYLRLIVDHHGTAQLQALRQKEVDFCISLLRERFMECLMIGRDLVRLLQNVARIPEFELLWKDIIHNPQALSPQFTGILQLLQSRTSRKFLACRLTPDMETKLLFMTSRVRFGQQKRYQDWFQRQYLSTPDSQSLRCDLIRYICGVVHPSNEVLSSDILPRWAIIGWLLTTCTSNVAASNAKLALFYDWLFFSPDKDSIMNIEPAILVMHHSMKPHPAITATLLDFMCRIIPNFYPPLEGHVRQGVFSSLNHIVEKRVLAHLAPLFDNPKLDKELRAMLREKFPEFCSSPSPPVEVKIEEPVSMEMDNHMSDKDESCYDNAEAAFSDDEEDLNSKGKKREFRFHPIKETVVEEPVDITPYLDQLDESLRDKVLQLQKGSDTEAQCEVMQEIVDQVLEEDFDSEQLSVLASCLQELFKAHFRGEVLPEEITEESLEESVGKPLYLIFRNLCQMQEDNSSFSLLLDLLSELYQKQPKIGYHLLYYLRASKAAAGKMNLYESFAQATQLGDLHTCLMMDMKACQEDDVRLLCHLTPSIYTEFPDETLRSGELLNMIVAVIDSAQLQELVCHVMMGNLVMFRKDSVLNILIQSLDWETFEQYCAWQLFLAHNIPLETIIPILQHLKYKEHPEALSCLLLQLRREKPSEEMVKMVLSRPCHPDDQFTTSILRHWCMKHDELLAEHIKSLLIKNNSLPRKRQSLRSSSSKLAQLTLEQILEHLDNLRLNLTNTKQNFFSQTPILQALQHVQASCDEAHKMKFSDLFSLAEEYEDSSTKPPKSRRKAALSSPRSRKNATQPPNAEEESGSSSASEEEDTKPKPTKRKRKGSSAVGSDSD
UniProt Q9UL03: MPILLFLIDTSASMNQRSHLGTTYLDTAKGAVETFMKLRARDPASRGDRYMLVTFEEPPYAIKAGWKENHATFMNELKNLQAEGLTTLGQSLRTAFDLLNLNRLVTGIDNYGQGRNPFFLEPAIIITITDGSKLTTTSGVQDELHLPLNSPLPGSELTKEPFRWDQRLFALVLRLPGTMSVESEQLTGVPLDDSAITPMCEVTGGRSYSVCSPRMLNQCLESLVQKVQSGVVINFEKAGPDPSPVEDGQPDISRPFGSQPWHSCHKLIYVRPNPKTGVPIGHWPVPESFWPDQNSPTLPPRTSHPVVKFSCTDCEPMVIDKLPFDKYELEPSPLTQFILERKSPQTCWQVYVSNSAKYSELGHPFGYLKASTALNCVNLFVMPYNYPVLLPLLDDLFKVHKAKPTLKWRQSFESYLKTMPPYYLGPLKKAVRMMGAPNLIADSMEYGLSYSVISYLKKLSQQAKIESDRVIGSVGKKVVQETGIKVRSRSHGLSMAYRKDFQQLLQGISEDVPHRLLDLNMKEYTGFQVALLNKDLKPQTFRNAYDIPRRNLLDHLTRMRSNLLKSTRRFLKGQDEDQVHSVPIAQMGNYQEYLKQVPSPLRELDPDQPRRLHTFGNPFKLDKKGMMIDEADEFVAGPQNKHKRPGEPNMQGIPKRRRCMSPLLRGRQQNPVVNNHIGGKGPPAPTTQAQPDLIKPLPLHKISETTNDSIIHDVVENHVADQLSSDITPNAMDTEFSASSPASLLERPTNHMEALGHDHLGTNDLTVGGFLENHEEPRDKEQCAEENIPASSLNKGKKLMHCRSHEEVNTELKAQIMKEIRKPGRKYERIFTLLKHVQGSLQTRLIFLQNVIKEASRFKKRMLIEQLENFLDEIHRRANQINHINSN
UniProt Q75QN2: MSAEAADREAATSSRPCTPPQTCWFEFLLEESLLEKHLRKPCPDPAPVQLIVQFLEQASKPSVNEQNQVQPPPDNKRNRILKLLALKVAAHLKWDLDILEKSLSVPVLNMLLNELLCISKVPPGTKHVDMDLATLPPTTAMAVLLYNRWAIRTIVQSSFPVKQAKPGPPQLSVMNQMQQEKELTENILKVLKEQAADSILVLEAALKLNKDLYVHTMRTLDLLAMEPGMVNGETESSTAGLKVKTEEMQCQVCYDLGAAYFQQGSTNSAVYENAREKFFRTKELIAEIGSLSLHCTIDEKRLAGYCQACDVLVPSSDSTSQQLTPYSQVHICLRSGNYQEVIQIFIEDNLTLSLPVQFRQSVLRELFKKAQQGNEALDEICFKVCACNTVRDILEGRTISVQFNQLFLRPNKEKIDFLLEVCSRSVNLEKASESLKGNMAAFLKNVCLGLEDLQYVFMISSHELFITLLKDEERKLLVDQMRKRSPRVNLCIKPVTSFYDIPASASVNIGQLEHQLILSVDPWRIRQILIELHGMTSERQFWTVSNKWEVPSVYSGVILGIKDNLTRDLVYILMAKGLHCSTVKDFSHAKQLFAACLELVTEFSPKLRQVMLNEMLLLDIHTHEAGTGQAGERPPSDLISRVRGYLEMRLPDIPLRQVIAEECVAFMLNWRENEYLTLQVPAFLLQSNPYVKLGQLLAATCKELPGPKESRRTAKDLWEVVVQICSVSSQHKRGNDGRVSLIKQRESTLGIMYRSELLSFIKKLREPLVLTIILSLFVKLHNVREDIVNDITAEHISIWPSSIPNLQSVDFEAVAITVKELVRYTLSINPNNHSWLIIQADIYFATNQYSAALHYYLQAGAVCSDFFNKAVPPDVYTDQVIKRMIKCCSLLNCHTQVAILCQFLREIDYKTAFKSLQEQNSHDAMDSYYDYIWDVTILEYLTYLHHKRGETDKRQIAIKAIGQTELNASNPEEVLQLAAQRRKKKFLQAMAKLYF

Results are given in words; binding and its absence hold for the method and conditions named. Some entries that bind do so weakly or less than the wild type.

For the substance “INTS13 C-terminal region, amino acids 501-706, Gal4 activation domain fusion (from UniProt Q9NVM9-1 501-706) (domain or fragment)”, in experiment [1], the binding result is reported as “binds”.

Take “INTS13 Family 2 mutant (p.S652L), Gal4 activation domain fusion (from UniProt Q9NVM9-1 1-706)”: the binding entry in experiment [1] is reported as “no binding”.

Regarding “INTS13 amino acids 577-706, Gal4 activation domain fusion (from UniProt Q9NVM9-1 577-706) (domain or fragment)”, the binding result in experiment [1] is given as “binds”.

Turning to “Integrator subunit 2 (INTS2), Gal4 activation domain fusion (from UniProt Q9H0H0 1-1196)”, the binding entry in experiment [2] and in experiment [3] was “no binding” throughout.

Take “Integrator subunit 3 (INTS3), Gal4 activation domain fusion (from UniProt Q68E01 1-1043)”: the binding entry in experiment [2] and in experiment [3] was “no binding” each time.

With “Integrator subunit 4 (INTS4), Gal4 fusion (from UniProt Q96HW7 1-963)”, the binding entry in experiment [2] is given as “no binding”.

With “Integrator subunit 5 (INTS5), Gal4 activation domain fusion (from UniProt Q6P9B9 1-1019)”, the binding result in experiment [2] and in experiment [3] was “no binding” each time.

As to “Integrator subunit 6 (INTS6), Gal4 activation domain fusion (from UniProt Q9UL03 1-887)”, the binding entry in experiment [2] and in experiment [3] was “no binding” throughout.

“Integrator subunit 7 (INTS7), Gal4 activation domain fusion (from UniProt Q9NVH2 1-962)”: the binding result in experiment [2] and in experiment [3] was “no binding” throughout.

As for “Integrator subunit 8 (INTS8), Gal4 activation domain fusion (from UniProt Q75QN2 1-995)”, the binding result in experiment [2] and in experiment [3] was “no binding” each time.

On to “Integrator subunit 9 (INTS9), Gal4 fusion (from UniProt Q9NV88 1-658)”, for which the binding result in experiment [2] is listed as “no binding”.

With “Integrator subunit 13 (INTS13), full length, Gal4 fusion (from UniProt Q9NVM9-1 1-706)”, the binding entry in experiment [1] is reported as “binds”.

Take “untagged full-length human INTS9 (insect cells) (from UniProt Q9NV88 1-658)”: in experiment [4], the binding entry is given as “binds”.

The values are drawn from publication PMC9559116.
